Several values for one entry are separate records, joined by “and”; a condition that tells them apart may be missing. Identical values can stand only once. Out of some 410,000 compounds screened, about 5,000 (1.2%) were called active. Inconclusive results, whose numbers are uncertain, are shown with a selection of clear calls. The call rests on the fitted dose curve; in most records, active means well fitted inhibition curve with a large enough effect; inconclusive means small, poorly fitted or top-dose-only effect; inactive means no such curve, though single readings can be large or run the other way. Potencies beside an inconclusive call are fits to weak or partial responses and may not hold up.
Test: qHTS for Inhibitors of TGF-b; further: nearly all actives have a fitted effect of over 65% in size
Settings: HepG2 CAGA-GFP TGF-b/SMAD3 reporter, GFP fluorescence, 18 h, TGF-beta stimulated, 500 pg/mL final; series mostly up to 46.1 µM; activity, negative = inhibition: at the top concentration
Procedure, shortened: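 Per well, imaged GFP fluorescence of HEPG2 CAGA-GFP cells gives the signal; cells get compound, then TGF-beta (500 pg/mL final), 18 h at 37 degrees C; %Activity versus -TGF-beta and +DMSO controls.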
On the % scale 0 is the no-effect control and ±100 the full control effect; potency means the concentration at half of the fitted maximal effect; tags describe the fitted curve by direction and shape.

Row | SMILES | activity, negative = inhibition | Potency
1 | CC1(C)CC(=O)C(CS(=O)(=O)c2ccccc2)=C(Cl)C1 | inactive: -16.1% | 
2 | CC1(C(=O)NS(=O)(=O)c2ccccc2Cl)CCN1C(=O)CCC1CCCC1 (stereo not drawn) | inactive: 37.1% | 
3 | Cn1c(/C=C/c2ccccc2)nc2ccccc2c1=O | inactive: -0.935% | 
4 | CN(CC1CCOCC1)C(=O)CC1C(=O)NCCN1Cc1ccc(-c2ccccc2)cc1 (stereo not drawn) |  | inconclusive: 3.16 µM [inhibitor, single point]
5 | CC(=O)NS(=O)(=O)c1ccc(NC(=O)c2ccc3c(c2)OCO3)cc1 | inactive: 5.6% | 
6 | CCOC(=O)N1CCC(NC(=O)CCC(=O)N2CC(C)Oc3ccc(C)cc32)CC1 (stereo not drawn) | inactive: -2.39% | 
7 | CCOc1ccc(NC(=O)Nc2c[nH]c(=O)[nH]c2=O)cc1 | inactive: 2.38% | 
8 | Cc1ccc2nc(N=C(N)N)nc(C)c2c1 |  | inconclusive: 7.08 µM [inhibitor, partial curve, poor fit]
9 | CCn1c(=O)n(CC)c2cc(NC(=O)C(C)c3ccccc3)c(Br)cc21 (stereo not drawn) | inactive: 1.37% | 
10 | Cn1c(SCc2ccccc2Cl)nc(=O)c2c1NC(=O)CC2c1cc(F)ccc1F (stereo not drawn) | inactive: -0.62% | 
11 | CC(=O)c1cccc(N=c2scc(-c3ccc(S(=O)(=O)N4CCOCC4)cc3)n2CCO)c1 |  | inconclusive: 0.126 µM [inhibitor, full curve]
12 | Cc1ccc(Cn2cccc2/C=N/NC(=S)Nc2ccc(C)cc2)cc1 | inactive: 15.9% | 
13 | COc1ccc(F)cc1-c1cc(NC=O)c2ncc(-c3cccc(C(=O)N(C)C)c3)n2c1 | inactive: -4.87% | 
14 | CCN(CC)c1ccc(CNS(=O)(=O)c2cc3c(cc2C)NC(=O)CO3)cc1 |  | inconclusive: 3.16 µM [inhibitor, single point]
15 | Cc1ccc(S(=O)(=O)N2CCOCC2)cc1C(=O)OC1CCOC1=O (stereo not drawn) | inactive: 7.22% | 
16 | CCOc1ccc(-c2cc(C(=O)N/N=C/c3ccc(O)cc3)c3ccccc3n2)cc1 |  | inconclusive: 35.5 µM [inhibitor, single point]
17 | Cc1ccc(S(=O)(=O)N(C)c2c(C)ccc(S(=O)(=O)NC(C)(C)C)c2C)cc1 |  | inconclusive: 35.5 µM [inhibitor, single point]
18 | COc1ccc(Cc2nc3ccc(C(=O)NC4CCOC4)cc3o2)cc1OC (stereo not drawn) | inactive: -9.35% | 
19 | COc1ccc(CN(C)C(=O)c2ccc(NS(=O)(=O)c3ccc(F)cc3)cc2)c(OC)c1OC |  | inconclusive: 35.5 µM [inhibitor, single point]
20 | COCCn1c(-c2ccco2)nc2nc3ccccc3nc21 | inactive: -13.9% | 
21 | CCCCCCc1ccc(N2C[C@H](Cc3ccccc3)[C@@H](CC(=O)NCc3ccc(OC)cc3)C2=O)cc1 |  | inconclusive: 10 µM [inhibitor, partial curve]
22 | O=C(Cn1ncc(Cl)c(Cl)c1=O)Nc1ccc2c(c1)OCO2 |  | inconclusive: 35.5 µM [inhibitor, single point]
23 | CN(CC(=O)Nc1ccccc1C(F)(F)F)Cc1c(O)ccc2ccccc12 |  | inconclusive: 35.5 µM [inhibitor, single point]

Row | SMILES | activity, negative = inhibition | Potency
24 | Cc1nn(Cc2c(F)c(F)c(F)c(F)c2F)c(C)c1NC(=O)c1ccc(COc2ccc(Cl)cc2Cl)o1 |  | inconclusive: 25.1 µM [inhibitor, single point]
25 | COc1ccc(Nc2ncc(C(=O)N3CCN(c4ccccc4OC)CC3)c3ccccc23)cc1 |  | inconclusive: 3.55 µM [inhibitor, partial curve, poor fit] and inconclusive: 6.31 µM [inhibitor, single point]
26 | Cc1ccc(S(=O)(=O)n2nc(-c3ccco3)nc2NCc2ccc(N(C)C)cc2)cc1 | inactive: 0% | 
27 | CCOC(=O)c1ccc(NC(=O)CCC(=O)N2CCSc3ccccc32)cc1 |  | inconclusive: 35.5 µM [inhibitor, single point]
28 | CCOc1ccc(S(=O)(=O)NCc2ccncc2)cc1NC(=O)c1ccccc1 |  | inconclusive: 3.16 µM [inhibitor, single point]
29 | O=C1NN(c2ccccc2)C(=O)/C1=C/c1coc2ccccc2c1=O |  | inconclusive: 35.5 µM [inhibitor, single point]
30 | COc1ccc(C(=O)COC(=O)c2nc3nccc(C)n3n2)cc1F | inactive: -0.641% | 
31 | Cc1ccc(-n2cc(CNCC3CC(=O)N(C4CC4)C3)c(-c3cccc(C)c3)n2)cc1 (stereo not drawn) |  | inconclusive: 22.4 µM [inhibitor, single point]
32 | CCn1cc2nc(SCc3cccc(C)c3)n(CCc3ccccc3)c(=O)c2n1 |  | inconclusive: 35.5 µM [inhibitor, partial curve, poor fit]
33 | CC(=O)NC1=C(C#N)CCC1 | inactive: -9.53% | 
34 | Cc1cccc(-n2ccc(=O)c(C(=O)Nc3ccc(S(=O)(=O)N4CCOCC4)cc3)n2)c1 | inactive: -4% | 
35 | O=C(CN1CCCC1)OCCCc1ccccc1 | inactive: 0% | 
36 | CN(C)CCCNC(=O)C[C@H]1C[C@H](C(=O)N2CCCCC2)[C@@]2(C)c3[nH]c4ccc(Cl)cc4c3CCN2C1=O | inactive: -6.13% | 
37 | Cc1noc(-c2ccc(-c3noc(-c4cccc(Cl)c4)n3)cc2)n1 | inactive: -8.99% | 
38 | Cc1ccc(S(=O)(=O)C(CNC(=O)c2ccc(C(F)(F)F)cc2)c2ccco2)cc1 (stereo not drawn) |  | inconclusive: 8.91 µM [inhibitor, partial curve, poor fit]
39 | CCOc1cc(/C=C2\C(=O)ON=C2C)ccc1OCc1ccccc1 | inactive: -15.2% | 
40 | Cc1csc(NC(=O)CCc2c(C)nc3cc(-c4cccc(F)c4)nn3c2C)n1 |  | inconclusive: 25.1 µM [inhibitor, single point]
41 | Cc1c(NS(=O)(=O)c2cc(C(=O)Nc3ccc(F)cc3Cl)ccc2Cl)c(=O)n(-c2ccccc2)n1C |  | inconclusive: 35.5 µM [inhibitor, single point]
42 | COC(=O)[C@@]1(Cc2ccc(OC)cc2)[C@@H]2C(=CC(=O)[C@H]2CC(=O)C(=O)N2CCCC2)CN1C(=O)c1ccccc1 |  | inconclusive: 25.1 µM [inhibitor, single point]
43 | O=C(NC1CCCCC1)c1ccc(S(=O)(=O)NCc2ccco2)cc1 | inactive: 21.6% | 
44 | O=C1Nc2ccccc2/C1=N\c1sc2c(c1C(=O)Nc1ccccc1)CCCC2 |  | inconclusive: 17.8 µM [inhibitor, partial curve, poor fit]
45 | NC(N)=N/N=C/c1ccc2cccc(OCc3ccccc3)c2n1 |  | inconclusive: 10 µM [inhibitor, partial curve, poor fit]
46 | CC(OC(=O)Cn1cnc2c1c(=O)n(C)c(=O)n2C)C(=O)N(C)c1ccccc1 (stereo not drawn) |  | inconclusive: 10 µM [inhibitor, partial curve, poor fit]

Row | SMILES | activity, negative = inhibition | Potency
47 | Cc1cccc(CCNC(=O)CCCOc2cc(=O)n(C)c3ccccc23)c1 |  | inconclusive: 11.2 µM [inhibitor, partial curve]
48 | CCN(CC)CCN(C(=O)CCOc1ccccc1)c1nc2c(F)cc(F)cc2s1 | inactive: -14.7% | 
49 | O=C(Nc1ccc(C(F)(F)F)cc1)C1CCCCN1S(=O)(=O)c1ccccc1 (stereo not drawn) |  | inconclusive: 17.8 µM [inhibitor, single point]
50 | Cc1ccc(S(=O)(=O)N2CCC(C(=O)OC(C)C(=O)NC(N)=O)CC2)cc1C (stereo not drawn) |  | inconclusive: 35.5 µM [inhibitor, single point]
51 | CCN(CC)c1nc(-c2ccccn2)nc(-c2ccccc2)c1C#N |  | inconclusive: 7.08 µM [inhibitor, partial curve, poor fit]
52 | CCOC(=O)CS(=O)(=O)c1nc(-c2ccccc2)cc(C(F)(F)F)n1 |  | inconclusive: 28.2 µM [inhibitor, single point]
53 | Cc1ccccc1NC(=O)Cn1cc(S(=O)(=O)N2CCCC2)c(S(=O)(=O)N2CCCC2)c1 | inactive: 1.09% | 
54 | CS(=O)(=O)Nc1ccccc1C(=O)Nc1cccc(Cl)c1 |  | inconclusive: 12.6 µM [inhibitor, single point]
55 | Oc1c(C(c2cccs2)N2CCN(c3ccc(F)cc3)CC2)sc2ncnn12 (stereo not drawn) |  | inconclusive: 31.6 µM [inhibitor, single point]
56 | O=C(COC(=O)c1ccc(Cl)c([N+](=O)[O-])c1)NC1CCCC1 | inactive: -8.12% | 
57 | O=C(CSc1ccccc1)Nc1cccc(S(=O)(=O)N2CCCCC2)c1 |  | inconclusive: 35.5 µM [inhibitor, single point]
58 | COc1ccc([C@@H]2[C@@H]3C(=O)N(C(C)(C)C)C(=O)[C@@H]3[C@]3(Cc4ccc(Cl)cc4)C(=O)N(c4ccc(C)cc4)C(=O)N23)cc1 |  | inconclusive: 5.62 µM [inhibitor, single point]
59 | CCC(=O)Nc1cccc(OCc2cc(=O)n3cc(C)ccc3n2)c1 | inactive: 6.49% | 
60 | CCCCNc1c(-c2ccc(Sc3ccc(OC)cc3)cc2)nc2cc(C)ccn12 |  | inconclusive: 22.4 µM [inhibitor, single point]
61 | CC(=O)c1ccc(NC(=O)COC(=O)CCN2C(=O)c3cccc([N+](=O)[O-])c3C2=O)cc1 | inactive: 7.08% | 
62 | CCc1ccc(NS(=O)(=O)c2c(-c3ccccc3)csc2C(=O)OC)cc1 |  | inconclusive: 15.8 µM [inhibitor, partial curve]
63 | COc1ccc(-c2nc3c(c(=O)n(C)c(=O)n3C)n2CC2CC(c3ccccc3)=NO2)cc1OC (stereo not drawn) | inactive: 5.96% | 
64 | COc1ccccc1N(CC(=O)Nc1cc(C)cc(C)c1)S(C)(=O)=O | inactive: -3.98% | 
65 | O=C(C1=C[C@@H](c2ccccc2)C[C@@H](OCc2ccc(CO)cc2)O1)N1CCN(Cc2ccc3c(c2)OCO3)CC1 |  | inconclusive: 14.1 µM [inhibitor, single point]
66 | CC1CC(C)CN(C(=S)SCc2nc(N)nc(Nc3ccccc3)n2)C1 (stereo not drawn) |  | inconclusive: 11.2 µM [inhibitor, partial curve, poor fit]
67 | O=C(Nc1ccc(F)cc1)c1ccc2c(c1)NC(=O)c1ccccc1S2 | inactive: -1.03% | 
68 | COc1ccc(C(=O)N2CCc3cc(OC)c(OC)cc3C2c2ccc(OC)c(OC)c2)cc1OC (stereo not drawn) | inactive: 16.1% | 
